# The supplement of paper PMC4604168 (melanoma cell lines)
# The list shows a part of the results. Repeats are few or missing, and single values can be far off.
# Legend:
# Assay in all cases: cell count relative to DMSO control; melanoma cells; higher = more viable cells
# Details in all cases: library dose: low library concentration; 72 h
# MZ2-MEL = tested on: MZ2-MEL
# MeWo = tested on: MeWo
# RPMI7951 = tested on: RPMI7951
# RVH-421 = tested on: RVH-421
# SkMel28 = tested on: SkMel28
# SkMel30 = tested on: SkMel30
# SkMel5 = tested on: SkMel5
# UACC257 = tested on: UACC257
# UACC62 = tested on: UACC62
# 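Note: cell number obtained by counting DAPI-stained nuclei in high-throughput microscope images with image analysis software, screen run in 1,536-well plates.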
SMILES,cell count (MZ2-MEL) [%],cell count (MeWo) [%],cell count (RPMI7951) [%],cell count (RVH-421) [%],cell count (SkMel28) [%],cell count (SkMel30) [%],cell count (SkMel5) [%],cell count (UACC257) [%],cell count (UACC62) [%]
"COc1cc2c(Oc3ccc4[nH]c(C)cc4c3F)ncnc2cc1OCCCN1CCCC1 [cediranib] + Cn1cc(/C=C2\C(=O)Nc3cccnc32)c2ccccc21 [GW441756] (first compound 0.4 µM, partner dose 0.4 µM)",95,106,95.6,94.3,83.4,92.3,83.7,82.5,78.9
"CC(C)(C)c1cnc(CSc2cnc(NC(=O)C3CCNCC3)s2)o1 + O=C(O)C(=O)Nc1sc2c(c1C(=O)O)CCNC2 [TCS401] (first compound 0.01 µM, partner dose 1.66667 µM)",101,98.3,90.3,113,76.3,113,100,59.7,91.4
"Cc1ccc(NC(=O)c2cccc(N(C)C)c2)cc1NC(=O)c1ccc(O)cc1 + Cn1cc(/C=C2\C(=O)Nc3cccnc32)c2ccccc21 [GW441756] (first compound 2 µM, partner dose 0.4 µM)",70.8,104,85.2,93.6,79.4,78.3,84.1,92.8,104
"CC(C)(C)c1cnc(CSc2cnc(NC(=O)C3CCNCC3)s2)o1 + O=C(Nc1ccccc1)c1cc([N+](=O)[O-])ccc1Cl [GW9662] (first compound 0.01 µM, partner dose 2 µM)",94.5,104,89.6,86.3,110,130,104,85.8,93.2
"CCc1ccc(CCOc2ccc(CC3SC(=O)NC3=O)cc2)nc1 (configuration not stated) [pioglitazone] + O=C1NC(=O)/C(=C/c2ccc(-c3ccc(F)cc3O)o2)S1 [AS252424] (first compound 2 µM, partner dose 1 µM)",92.7,103,95.4,91.3,96.2,116,94.8,86.2,94.3
"CN(NC(=O)CC(=O)NN(C)C(=S)c1ccccc1)C(=S)c1ccccc1 + COc1ccc2c(c1)CCC1C2CCC2(C)C(NCCCCCCN3C(=O)C=CC3=O)CCC12 [U73122] (first compound 0.006 µM, partner dose 0.4 µM)",94.1,120,80.4,82.1,87.3,71,107,81.4,123
"COc1cc2c(Oc3ccc4[nH]c(C)cc4c3F)ncnc2cc1OCCCN1CCCC1 [cediranib] + CC(C)CCN1c2nc(Nc3cc(F)c(O)c(F)c3)ncc2N(C)C(=O)C1C [BID1870] (first compound 0.4 µM, partner dose 0.2 µM)",95.1,86.6,111,85.2,80.1,99.4,103,82.6,82.8
"CN(NC(=O)CC(=O)NN(C)C(=S)c1ccccc1)C(=S)c1ccccc1 + CCc1ccc(CCOc2ccc(CC3SC(=O)NC3=O)cc2)nc1 [pioglitazone] (first compound 0.006 µM, partner dose 2 µM)",103,97.5,108,103,85.4,94.1,95.3,107,78.2
"CC(C)(C)c1cnc(CSc2cnc(NC(=O)C3CCNCC3)s2)o1 + COC(=O)c1sccc1S(=O)(=O)Nc1ccc(Nc2ccccc2)cc1OC [GSK0660] (first compound 0.01 µM, partner dose 1 µM)",96.7,103,105,99,91.4,95.8,87,89.6,79.9
"CN(NC(=O)CC(=O)NN(C)C(=S)c1ccccc1)C(=S)c1ccccc1 + O=C1NC(=O)/C(=C/c2ccc(-c3ccc(F)cc3O)o2)S1 [AS252424] (first compound 0.006 µM, partner dose 1 µM)",100,67.6,118,107,101,82.2,86.5,84.3,88.8
"Cc1ccc(NC(=O)c2cccc(N(C)C)c2)cc1NC(=O)c1ccc(O)cc1 + CC(C)CCN1c2nc(Nc3cc(F)c(O)c(F)c3)ncc2N(C)C(=O)C1C [BID1870] (first compound 2 µM, partner dose 0.2 µM)",84.9,86.9,95.3,90.7,89.3,72.2,91.3,81.9,77.4
"CN(NC(=O)CC(=O)NN(C)C(=S)c1ccccc1)C(=S)c1ccccc1 + COc1ccc(-c2ccc3c(N4CCOCC4)nc(N4C[C@@H](C)O[C@@H](C)C4)nc3n2)cc1CO [KU0063794] (first compound 0.006 µM, partner dose 0.02 µM)",93.8,78.3,102,78.5,88.6,87.9,88.1,85.1,78.4
"CN(NC(=O)CC(=O)NN(C)C(=S)c1ccccc1)C(=S)c1ccccc1 + COc1cc2ncnc(Nc3ccc(Oc4ccccc4)cc3)c2cc1OC [SrcI1] (first compound 0.006 µM, partner dose 2 µM)",92.4,79.2,107,98.6,76.8,102,94.8,83.9,100
